# Some of the results follow. The main result of the screen is listed elsewhere. These columns were measured beside it and carry no call. The list favours compounds with an active or inconclusive main result. Words in brackets tell the shape of the fitted curve; partial curves, single points and poor fits give uncertain potencies.
# Assay: Cell-based coincidence reporter assay to measure PMP22 gene transcription in S16 Pmp22-F2sN cells - Confirmatory screen (AID 1508646)
# Conditions: S16 Schwann cells Pmp22-F2sN, dual luciferase, 24 h; measured here: NLuc reporter channel
# How it was run: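 S16 rat Schwann cells carrying FLuc-2A-NLuc reporter in Pmp22 3' UTR (500-1,000 cells/well) treated with pinned compounds for 24 h at 37C. Dual-luciferase reads: FLuc luminescence first, then NLuc after Stop&Glo.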
# Tags describe the fitted curve by direction and shape.
row,SMILES,AC50
1,COc1ccc(-n2nc3c(N4CCCC(C(=O)NCCc5ccccc5C)C4)nnc(C)c3c2C)cc1 (configuration not stated),"24.3 µM [falling, partial curve]"
2,Cc1cccc(NC(=O)C2CCCN(c3nnc(-n4c(C)ccc4C)s3)C2)c1C (configuration not stated),"17.2 µM [falling, partial curve, poor fit]"
3,O=C(c1ccc(C(F)(F)F)cc1)N1CCC(c2nc(-c3ccc(S(=O)(=O)N4CCCC4)cc3)no2)CC1,"10.9 µM [falling, full curve]"
4,CCc1ccc(OCC(=O)Nc2cc3oc4ccccc4c3cc2OC)cc1,"17.2 µM [falling, partial curve]"
5,Cc1ccc2c(c1)C(=O)C(=O)N2Cc1ccc(OCCC(C)C)cc1,"12.2 µM [falling, partial curve]"
6,O=C(CSc1nc2c(sc3ccccc32)c(=O)n1CCCC(=O)NC1CCCC1)Nc1ccc(F)cc1,"12.2 µM [falling, full curve]"
7,CCN(Cc1ccccc1)C(=O)Cn1c(=O)n(-c2ccccc2)c(=O)c2c1c1cc(C)ccc1n2C,"24.3 µM [falling, partial curve]"
8,CCCn1ccc2c(OCC(=O)Nc3ccccc3C(=O)OCC)cccc2c1=O,"15.3 µM [falling, full curve, poor fit]"
9,CCC(=O)N1CCc2cc(S(=O)(=O)CCC(=O)N3CCN(c4ccc(Cl)cc4)CC3)ccc21,"21.7 µM [falling, partial curve]"
10,CCOC(=O)c1c(C)oc2nc(C)nc(NCCc3ccc(OCC)cc3)c12,"12.2 µM [falling, full curve]"
11,Cc1ccc(NS(=O)(=O)c2cc(Br)cc3c2N(C(=O)C2CC2)CC3)cc1C,"21.7 µM [falling, partial curve]"
12,CC1=Nc2cc(C(=O)NC3CCCC3)ccc2Sc2ccc(C)cc21,"2.43 µM [falling, full curve]"

# — PubChem BioAssay (NCATS)
